According to PubChem BioAssay AID504845 (National Center for Advancing Translational Sciences (NCATS), 2011):
Out of some 390,000 compounds screened, about 150 (0.038%) were called active. The inconclusive results got no clear call from the source; some entries with a clear call stand among them for comparison. Calls follow the shape of the dose curve; as a rule, active = well fitted inhibition curve with a large enough effect; inconclusive = small, poorly fitted or top-dose-only effect; inactive = no such curve, though single readings can be large or run the other way. Where the call is inconclusive, the potency comes from a doubtful curve fit.
Also: nearly all actives have a fitted effect of over 75% in size.
Potency is read from the fitted curve at half-maximal effect; tags tell the direction and shape of the fitted curve.

What follows are molecules tested against Regulator of G-protein signaling 4 (Homo sapiens) (UniProt P49798) (assay: Inhibitors of Regulator of G Protein Signaling (RGS) 4: qHTS). Details: Transcreener GDP fluorescence polarization, RGS4-accelerated GTP hydrolysis; series mostly up to 114 µM.
Chain of UniProt P49798 (P49798 whole entry, looked up): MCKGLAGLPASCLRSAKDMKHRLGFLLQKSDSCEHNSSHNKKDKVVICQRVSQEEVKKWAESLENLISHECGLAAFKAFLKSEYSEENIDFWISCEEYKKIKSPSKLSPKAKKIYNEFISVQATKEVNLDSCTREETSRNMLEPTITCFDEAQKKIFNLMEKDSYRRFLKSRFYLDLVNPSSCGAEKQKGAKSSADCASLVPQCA
How it was run: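 MLSMR compounds (23 nl, pin-transferred) preincubated 10 min at room temperature with a 500nM (2x) first reagent, then RGS4 at 900nM (2x) plus Transcreener GDP mix added; fluorescence polarization (620/688 nm) read before and after 90 min at 30 °C.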
For `Cc1cc2n(n1)SC(Nc1cc(Cl)ccc1Cl)N2` (centres undefined), the Potency was inconclusive: 89.1 µM [inhibitor, partial curve, poor fit]. With `O=C(CSc1nnc(-c2cccnc2)n1Cc1ccco1)c1ccc(Cl)c(Cl)c1` the Potency was inconclusive: 89.1 µM [inhibitor, partial curve, poor fit]. For `CCN(CC)CCN1CCn2c3c(c4cc(C)ccc42)CCCC31` (centres undefined), the Potency was inconclusive: 39.8 µM [inhibitor, partial curve, poor fit]. In the case of `c1coc(-c2nc3cc4ccccc4cc3nc2-c2ccco2)c1`, the Potency is reported as inconclusive: 44.7 µM [inhibitor, partial curve, poor fit]. For `CC(=O)N1CCN(C(=O)Nc2cccc(C(F)(F)F)c2)CC1`, the Potency was inconclusive: 89.1 µM [inhibitor, single point]. In the case of `O=S(=O)(c1ccc(Cl)c(NC(=S)N/N=C/c2ccc(O)cc2)c1)N1CCOCC1`, the Potency is reported as inconclusive: 50.1 µM [inhibitor, partial curve, poor fit]. With `Cc1cc(NC(=O)CCCN2C(=O)/C(=C/c3cccs3)SC2=S)no1` the Potency was “inactive”. With `COC(=O)c1c(NC(=O)C(C)Oc2ccc(Cl)cc2Cl)sc2c1CCCC2` (centres undefined) the Potency was inconclusive: 50.1 µM [inhibitor, partial curve, poor fit]. In the case of `Cc1ccc(NC(=S)N/N=C/c2ccc([N+](=O)[O-])s2)cc1`, the Potency is reported as inconclusive: 100 µM [inhibitor, single point]. In the case of `COc1cccc(OC)c1NC(=O)Cn1nc(C)c2ccccc2c1=O`, the Potency is reported as inconclusive: 70.8 µM [inhibitor, partial curve, poor fit]. With `Cc1ccc(OCC(=O)Nc2ccc(S(=O)(=O)N(C)C3CCN(C)CC3)cc2)c(C)c1` the Potency was “inactive”. With `Oc1ccc(-c2cnc(-c3ccc(O)cc3)nc2)cc1` the Potency was “inactive”. With `COc1ccc2cc3c(N)nn(C(=O)c4ccc(Cl)c([N+](=O)[O-])c4)c3nc2c1` the Potency was inconclusive: 25.1 µM [inhibitor, full curve, poor fit]. In the case of `CC(=O)Nc1ccc2[nH]c(C)cc(=O)c2c1`, the Potency is reported as “inactive”. `COc1cc(OC)cc(C(=O)Nc2cccc(-c3cn4cccnc4n3)c2)c1` was tested, and the Potency was inconclusive: 56.2 µM [inhibitor, partial curve, poor fit]. In the case of `CC(C)CC(=O)NC(NC(=S)Nc1cccc2cccnc12)C(Cl)(Cl)Cl` (centres undefined), the Potency is reported as “inactive”. With `NC(=O)C1CCN(c2nc(-c3cccnc3)cs2)CC1` the Potency was inconclusive: 50.1 µM [inhibitor, partial curve, poor fit]. In the case of `CN1c2ccccc2N(C)C1(C)c1ccccc1`, the Potency is reported as inconclusive: 35.5 µM [inhibitor, partial curve, poor fit]. `CCOC(=O)c1c(NC(=O)c2ccccc2)sc2c1CCc1ccccc1-2` was tested, and the Potency was inconclusive: 79.4 µM [inhibitor, partial curve, poor fit]. For `CCCCn1nc(NC(=O)CC)c2cc3cc(OC)ccc3nc21`, the Potency was “inactive”. With `O=C(N/N=C/c1ccc(OC(=O)c2ccc(Br)cc2)cc1)c1ccncc1` the Potency was “inactive”. For `Cc1ccccc1CNC(=O)c1ccccc1N`, the Potency was “inactive”. In the case of `Cc1cc(C)c2c(c1)OC(=O)CC2c1ccccc1C` (centres undefined), the Potency is reported as inconclusive: 50.1 µM [inhibitor, partial curve, poor fit]. With `Cc1cccnc1Nc1nc(-c2ccc(O)cc2)cs1` the Potency was inconclusive: 56.2 µM [inhibitor, partial curve, poor fit]. With `CC(=O)CC1OC(=O)C(Br)=C1NCc1ccccc1` (centres undefined) the Potency was inconclusive: 10 µM [inhibitor, full curve, poor fit]. With `Cc1cc(C)n2nc(SCC(=O)Nc3ccc(F)cc3)nc2n1` the Potency was inconclusive: 17.8 µM [inhibitor, full curve, poor fit]. In the case of `CCOC(=O)C(C)Sc1nc2c(c(=O)[nH]c(=O)n2C)n1Cc1ccc(Cl)cc1` (centres undefined), the Potency is reported as inconclusive: 89.1 µM [inhibitor, partial curve, poor fit]. In the case of `O=C(Nc1ccc(Cl)c(Cl)c1)Nc1nnc(CSc2ccccc2)s1`, the Potency is reported as “inactive”. In the case of `Cc1ccc2c(c1C)NC(C(=O)O)C1CC=CC21` (centres undefined), the Potency is reported as inconclusive: 70.8 µM [inhibitor, partial curve, poor fit]. `C#CCOc1ccc(C2C(C#N)=C(N)Oc3cc(O)ccc32)cc1` (centres undefined) was tested, and the Potency was inconclusive: 89.1 µM [inhibitor, single point]. `O=C(NCc1cccnc1)NC1(C(F)(F)F)Oc2ccc(Cl)cc2O1` (centres undefined) was tested, and the Potency was “inactive”. `CC(C)(C)c1cc(NC(=O)c2cccnc2)no1` was tested, and the Potency was “inactive”. In the case of `O=C(O)CCCC(=O)N1CCN(c2cccc(Cl)c2)CC1`, the Potency is reported as inconclusive: 89.1 µM [inhibitor, single point]. For `CCn1c(CN2CCOCC2)nc2cc(NC(=O)c3ccc([N+](=O)[O-])cc3)ccc21`, the Potency was “inactive”. For `O=C(NCCCn1ccnc1)C1CCN(S(=O)(=O)c2cc([N+](=O)[O-])ccc2Cl)CC1`, the Potency was inconclusive: 89.1 µM [inhibitor, single point]. For `COc1ccc(S(=O)(=O)Nc2ccc(-c3ccc4nncn4n3)cc2)c(OC)c1`, the Potency was inconclusive: 100 µM [inhibitor, partial curve, poor fit]. For `CCOC(=O)C(Cc1cc(N)c(Oc2ccc(OC)cc2)c(N)c1)NC(C)=O` (centres undefined), the Potency was inconclusive: 44.7 µM [inhibitor, partial curve, poor fit]. In the case of `CC(C(=O)NC1CCCC1)N(C(=O)c1ccc(-c2ccccc2)[nH]1)c1ccccc1F` (centres undefined), the Potency is reported as “inactive”. For `CCOCCn1c(SC)nc2c1c(=O)[nH]c(=O)n2C`, the Potency was inconclusive: 100 µM [inhibitor, single point]. In the case of `CCN(CC)c1ccc(N)cc1S(=O)(=O)Nc1ccccc1OC`, the Potency is reported as inconclusive: 50.1 µM [inhibitor, partial curve, poor fit]. With `COc1cc2c(-c3ccc(C)cc3)nc3c(c(C)nn3-c3ccccc3)c2cc1OC` the Potency was “inactive”. With `Fc1ccc2cnc(-c3ccccc3F)cc2c1` the Potency was “inactive”. For `NNc1nc2ccccc2nc1C(F)(F)F`, the Potency was inconclusive: 79.4 µM [inhibitor, partial curve, poor fit]. `Cc1ccc(S(=O)(=O)N2CCN(C(=O)CSc3nnc(C)c(=O)[nH]3)CC2)cc1` was tested, and the Potency was inconclusive: 50.1 µM [inhibitor, partial curve, poor fit].
